Results: ChEMBL document CHEMBL4888484, “Replenishing the malaria drug discovery pipeline: Screening and hit evaluation of the MMV Hit Generation Library 1 (HGL1) against asexual blood stage Plasmodium falciparum ,using a nano luciferase reporter read-out” (2022)
The campaign covered roughly 150,000 compounds. About 540 (0.36%) showed an effect of 50% or more. Some of the results follow.

The molecules below were run on Plasmodium falciparum (assay: Primary screen in NF54 nanoGlo assay, in single point, at 2uM, 72h; a lower Z score goes with more inhibition). Conditions: timepoint 72 hour.
Assay type: functional, Erythrocyte

Compound | % Inhibition | Z score
CCn1cc(-c2cc(C(=O)Nc3c(C)noc3C)c3ccccc3n2)c(C)n1 | -5% | 0.7
CCCCS(=O)(=O)N1CCC(CCc2noc(C3CC3)n2)CC1 | 0% | 0.08
O=C(O)c1c2c(nc3ccc(S(=O)(=O)N4CCC(C(=O)NC5CCCCCC5)CC4)cc13)CCCC2 | -13% | 2.03
c1ccc(CCN2CCC[C@H](Cn3cncn3)C2)nc1 | -8% | 0.91
O=c1cc2c(nn1CC1CCN(S(=O)(=O)c3ccc4c(c3)CCO4)CC1)CCC2 | -7% | 1
CNC(=O)OCc1cccc(COC(=O)NC)n1 [PYRICARBATE] | -5% | 0.46
C#CCNC(=O)Cc1ccc(OC)cc1 | -14% | 2.67
CC1(C)CCC[C@@H]1C(=O)NS(=O)(=O)Cc1ccc(Br)c(F)c1 | 3% | -0.37
C#C[C@@H](NC(=O)NCC1(N2CCOCC2)CC1)C(C)C | -18% | 1.98
COCC1(CNCc2cccc(O)c2)CCC1 | 1% | -0.16
CC(C)(C)c1ccc(C(=O)N2CCOC[C@@H]2CC(N)=O)nc1 | -7% | 0.91
CN1CCC(n2ccnc2-c2ccccc2-c2ccccc2)CC1 | -12% | 1.15
Cn1cc(CNc2ncccn2)c(C(C)(C)C)n1 | 10% | -1.02
Cc1c(C(=O)NCc2ccc3c(c2)C(=O)NCC3)nnn1CC1CCCC1 | -4% | 0.83
Cc1ccc(C(=O)NCC(CNC(=O)c2ccc(C)o2)NC(=O)OC(C)(C)C)o1 | 5% | -0.8
NC(=O)c1ccccc1NC(=O)CNC1(c2ccc(F)cc2)CCC1 | 5% | -0.68
O=C(Nc1ccc(C(=O)N2CCN3CCNC(=O)[C@@H]3C2)cc1)C1CCC1 | 13% | -1.76
Cc1oncc1CNS(=O)(=O)C[C@H]1COc2ccccc2O1 | -9% | 1.53
CCOC1(C(=O)NC2CCCC(C(=O)N(C)C)C2)CCCC1 (stereo not drawn) | -4% | 0.46
Cc1nn(-c2ccccc2Cl)c(Cl)c1CNC[C@H](O)CN1CCCC1 | -1% | 0.07
CC1(C)C[C@H](COc2ccncc2)C(C)(C)O1 | -2% | 0.18
CC(=O)Nc1ccc2nn(-c3cccc4ccccc34)nc2c1 | -20% | 2.72
CN1CCN([C@H]2CCN(c3ccnc4ccc(Cl)cc34)C[C@H]2CCCO)CC1 | 41% | -4.86
O=C(c1cc(F)ccc1Cl)N1CCN(c2ncccc2-c2nnc(C3CC3)o2)CC1 | -7% | 1.08
Cn1ncc2c(N3CC[C@H](n4cc(C5CC5)nn4)C3)ncnc21 | 0% | 0.07
COC[C@H]1CCCN(C(=O)Cn2cnc3c2CCCC3)CC1 | -15% | 2.87
CCN1CCN([C@H]2CCN(Cc3nc(-c4ccc(OC(F)F)c(OC)c4)no3)C2)CC1 | -14% | 1.37

Compound | % Inhibition | Z score
Cc1nccc(O[C@H]2CCCN(S(=O)(=O)C3CC3)C2)n1 | -3% | 0.61
COc1ccc([C@H](CNC(=O)C2CCCC2)N2CCCCC2)cc1 | 5% | -0.65
CCCc1nc(N2CCC[C@H](CNC(=O)c3cnn(C)c3C)C2)no1 | 6% | -0.78
CS(=O)(=O)N1CC[C@@H](C(=O)Nc2ccc(F)cc2F)Oc2ccc(Cl)cc21 | 9% | -1.08
CC(NC(=O)C(c1ccccc1)c1ccccc1)C1CC2CCC1C2 (stereo not drawn) | 6% | -0.76
c1cc(-c2nc3c(c(NC4CC4)n2)CCN(c2cnccn2)CC3)ccn1 | -3% | 0.46
COC1(C(=O)N2CCO[C@H]3CCC[C@H]32)CCC1 | -3% | 0.34
CC(CN(C)C(=O)NCCC1CCCO1)c1nccs1 (stereo not drawn) | -5% | 0.69
CCOc1ncc(C(=O)N2C[C@@H]3CS(=O)(=O)C[C@@H]3C2)cc1Cl | -9% | 1.49
O=C(NCCc1ccc(F)cc1)C1CCCCC1C(=O)N1CCCC1 (stereo not drawn) | -12% | 1.89
Cn1cnnc1NCc1cnc(C(C)(C)C)s1 | 8% | -0.92
CCN(C(=O)Cn1cnc2c1c(=O)n(C)c(=O)n2C)c1ccccc1C | -16% | 2.98
COc1cc(N(C)CCc2ccncc2)ncn1 | -2% | 0.23
O=C(NCc1ccc([C@@H](O)c2ccsc2)s1)NC1CCOCC1 | -5% | 0.63
CC(C)(C)n1nnc(CC(=O)N(Cc2cccnc2)c2ccc(F)cc2)n1 | -1% | 0.19
CC(C)Oc1cc(N2CCN(Cc3cc(C(C)C)no3)CC2)nc(N)n1 | -10% | 1.92
CN(C)CCn1ccnc1C1CCN(C(=O)c2nc3ccccc3[nH]2)CC1 | -12% | 1.47
CCCN(Cc1ccc(Cl)cc1)C(=O)NCCCC(=O)O | -2% | 0.28
Cc1ccc(C(N)=O)cc1OC(=O)c1cc(C)n(-c2ccc(F)cc2F)n1 | -5% | 0.77
CC(C)C[C@@H](CN(C)C)NC(=O)c1[nH]ncc1Br | 0% | 0.04
O=C(Nc1ccc(C(=O)N2CCCCC2)cc1)Nc1ccc2c(c1)OCO2 | -17% | 3.38
Cc1ccc2c(c1)Oc1ccccc1C(N1CCN(C(=O)COc3ccccc3)[C@@H](C)C1)=N2 | -19% | 3.11
Cc1cc(C(=O)N[C@H]2CCCc3ccccc32)c(C)o1 | -7% | 1.01
Cc1cc(O)nc(C(=O)N(C)C[C@H]2CCCO2)c1 | 6% | -1.21
C[C@@H](c1ccccc1)n1nccc1NC(=O)CCN1CCCCC1=O | -11% | 2.16
CCOc1ccc(CN2CCc3nc(N4CCOCC4)ncc3C2)cc1OC | 1% | -0.14
CC(=O)N1CCC[C@H](c2ncc(Cc3ccccc3Cl)s2)C1 | -8% | 1.21
